The list shows a part of the results.
B1: PhoQ; a variant is named by its letters at X, in order, P23837 (parent)
chain: MKKLLRLFFPLSLRVRFLLATAAVVLVLSLAYGMVALIGYSVSFDKTTFRLLRGESNLFYTLAKWENNKLHVELPENIDKQSPTMTLIYDENGQLLWAQRDVPWLMKMIQPDWLKSNGFHEIEADVNDTSLLLSGDHSIQQQLQEVREDDDDAEMTHSVAVNVYPATSRMPKLTIVVVDTIPVELKSSYMVWSWFIYVLSANLLLVIPLLWVAAWWSLRPIEALAKEVRELEEHNRELLNPATTRELTSLVRNLNRLLKSERERYDKYRTTLTDLTHSLKTPLXXLQXXLRSLRSEKMSVSDAEPVMLEQISRISQQIGYYLHRASMRGGTLLSRELHPVAPLLDNLTSALNKVYQRKGVNISLDISPEISFVGEQNDFVEVMGNVLDNACKYCLEFVEISARQTDEHLYIVVEDDGPGIPLSKREVIFDRGQRVDTLRPGQGVGLAVAREITEQYEGKIVAGESMLGGARMEVIFGRQHSAPKDE

Variants of: B1
Experiment: enrichment ratio after two sorts for PhoP signalling (ratio (wild type AVST 3.29)); higher = more functional
Details: with PhoP (E. coli)

| Variant | enrichment ratio |
| --- | --- |
| WWGS | ≤ 0.25 |
| DFWF | ≤ 0.25 |
| YYRM | ≤ 0.25 |
| GVSH | 2.66 |
| CILP | ≤ 0.25 |
| DIHC | ≤ 0.25 |
| PKTV | ≤ 0.25 |
| QVDR | 2.61 |
| GEFS | ≤ 0.25 |
| IWLK | ≤ 0.25 |
| VPKL | ≤ 0.25 |
| MYQQ | ≤ 0.25 |
| SRDG | 0.277 |
| DYNT | ≤ 0.25 |
| SDLP | ≤ 0.25 |
| NFDC | ≤ 0.25 |
| SNST | 9.41 |
| KSAR | ≤ 0.25 |
| VSSA | ≤ 0.25 |
| QPPE | ≤ 0.25 |
| PVRS | ≤ 0.25 |

| Variant | enrichment ratio |
| --- | --- |
| YKWR | ≤ 0.25 |
| SWGS | ≤ 0.25 |
| TKEY | ≤ 0.25 |
| VDYC | ≤ 0.25 |
| LNIK | ≤ 0.25 |
| RLVD | ≤ 0.25 |
| PWCC | 3.37 |
| ETAQ | ≤ 0.25 |
| TNNI | 3.41 |
| IYLP | ≤ 0.25 |
| GKHN | ≤ 0.25 |
| VCDW | ≤ 0.25 |
| YMLS | ≤ 0.25 |
| QQMF | ≤ 0.25 |
| MRVC | ≤ 0.25 |
| WSPD | ≤ 0.25 |
| IRSW | ≤ 0.25 |
| RFNH | ≤ 0.25 |
| HGVM | ≤ 0.25 |
| VKYE | ≤ 0.25 |
| SQAF | 3.99 |

| Variant | enrichment ratio |
| --- | --- |
| GPYS | ≤ 0.25 |
| RVFA | ≤ 0.25 |
| GLTK | ≤ 0.25 |
| ETRQ | ≤ 0.25 |
| QLFH | ≤ 0.25 |
| DFPE | ≤ 0.25 |
| HTMS | ≤ 0.25 |
| AKLF | 7.81 |
| IAIY | ≤ 0.25 |
| NLCW | ≤ 0.25 |
| IGCK | ≤ 0.25 |
| HPFV | ≤ 0.25 |
| TYRK | ≤ 0.25 |
| AYMH | ≤ 0.25 |
| FVDG | ≤ 0.25 |
| RCRA | ≤ 0.25 |
| SMPK | ≤ 0.25 |
| NTND | ≤ 0.25 |
| WFLQ | ≤ 0.25 |
| AIEL | ≤ 0.25 |
| GRGW | ≤ 0.25 |

| Variant | enrichment ratio |
| --- | --- |
| KELD | ≤ 0.25 |
| RCGY | ≤ 0.25 |
| SRNE | ≤ 0.25 |
| MKPN | ≤ 0.25 |
| VDGI | ≤ 0.25 |
| MPER | ≤ 0.25 |
| PSFL | ≤ 0.25 |
| WQRR | ≤ 0.25 |
| KTGG | ≤ 0.25 |
| SYKG | ≤ 0.25 |
| FPKT | ≤ 0.25 |
| HSCT | ≤ 0.25 |
| SPIG | ≤ 0.25 |
| EDAH | ≤ 0.25 |
| VLIA | ≤ 0.25 |
| EYFN | ≤ 0.25 |
| FSDT | ≤ 0.25 |
| QCIS | ≤ 0.25 |
| VPES | ≤ 0.25 |
| YSPD | ≤ 0.25 |
| FEED | ≤ 0.25 |

Source: a collection of fitness landscapes (doi:10.1126/science.1257360)
